# Measured values from PubChem BioAssay AID488969 (Vanderbilt High Throughput Screening Facility, 2010).
# Over roughly 110,000 compounds, “z-score” has its median near -0.1; the highest 2% begin near 2. This is one part of the list. Calls of active or inactive are those of the source.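 How the source made its calls: active means z-score in the third read window above 3 or below -3; inactive means the rest.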
# Target: Metabotropic glutamate receptor 8 (Rattus norvegicus) (UniProt P70579)
# Assay: rat mGluR8 modulators via GIRK flux, primary screen, cell-based, thallium flux, HTS (AID 488969)
# Conditions: HEK293 rat mGluR8, GIRK (G protein-gated inwardly rectifying potassium channel) thallium flux, FluoZin2; at 10 µM; stronger effect = higher value; submaximal glutamate (EC20) added with thallium
# UniProt P70579, sequence (P70579 whole entry, looked up): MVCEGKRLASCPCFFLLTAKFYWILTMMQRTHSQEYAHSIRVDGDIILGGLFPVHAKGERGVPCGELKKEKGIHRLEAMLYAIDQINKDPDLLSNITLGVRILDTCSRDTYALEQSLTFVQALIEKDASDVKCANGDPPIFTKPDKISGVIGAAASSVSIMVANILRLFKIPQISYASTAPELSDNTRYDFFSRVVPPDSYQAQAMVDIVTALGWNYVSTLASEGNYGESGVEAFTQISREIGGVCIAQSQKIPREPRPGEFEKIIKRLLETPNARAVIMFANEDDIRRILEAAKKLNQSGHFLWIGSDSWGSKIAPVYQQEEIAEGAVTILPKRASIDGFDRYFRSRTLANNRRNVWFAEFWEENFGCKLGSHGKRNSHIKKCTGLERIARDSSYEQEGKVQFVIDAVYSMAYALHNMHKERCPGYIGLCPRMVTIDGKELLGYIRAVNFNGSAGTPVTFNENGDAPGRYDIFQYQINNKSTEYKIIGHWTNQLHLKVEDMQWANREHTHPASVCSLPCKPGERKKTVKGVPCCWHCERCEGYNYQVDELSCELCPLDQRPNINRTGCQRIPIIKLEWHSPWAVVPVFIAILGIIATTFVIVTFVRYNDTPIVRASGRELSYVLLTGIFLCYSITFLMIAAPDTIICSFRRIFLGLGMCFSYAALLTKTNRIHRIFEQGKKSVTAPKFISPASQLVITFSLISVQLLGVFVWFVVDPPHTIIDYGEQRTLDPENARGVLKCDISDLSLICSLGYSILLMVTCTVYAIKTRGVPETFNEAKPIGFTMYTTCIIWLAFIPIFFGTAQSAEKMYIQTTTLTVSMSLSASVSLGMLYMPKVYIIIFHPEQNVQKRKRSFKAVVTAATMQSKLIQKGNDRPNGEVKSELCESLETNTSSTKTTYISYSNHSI
row,Structure (SMILES),z-score
1,CCc1ccc(NCCC(=O)c2ccc(Cl)cc2)cc1,0.0582
2,O=C(CN1CCN(c2ccc(Cl)cc2)CC1)N1CCCC1,-0.0698
3,Cc1cc(Cl)ccc1NC(=S)NCCC(c1ccccc1)c1ccccc1,-0.444
4,CNC(=O)c1sccc1SCc1ccc(Cl)cc1Cl,-0.622
5,Cc1cccc(NC(=O)CSc2ncnc3c2oc2ccccc23)c1,0.296
6,COc1cc(NC(=O)c2ccco2)c(OC)cc1NC(=O)c1cc(OC)c(OC)c(OC)c1,-1.26
7,CCOC(=O)c1cnc(-c2ccccc2)nc1Oc1ccc(Cl)c(Cl)c1,0.00851
8,O=C(C(c1ccccc1)c1ccccc1)N1CCN(Cc2ccco2)CC1,-0.593
9,COc1ccc(OC)c(N(CC(=O)Nc2cccnc2)S(=O)(=O)c2ccc(C)cc2)c1,0.0478
10,CCOC(=O)c1cc2c(=O)n3cccc(C)c3nc2n(CC2CCCO2)c1=NC(C)=O (stereo not drawn),-0.0779
11,COC(=O)c1c(NC(=O)CN2CCN(c3cccc(Cl)c3)CC2)sc(C)c1C,0.246
12,CCOC(=O)N1CCN(S(=O)(=O)c2ccc3c(c2)CCN3C(=O)C2CC2)CC1,0.00591
13,COC(=O)c1[nH]c2c(c1C)C(=O)CC(c1cc(OC)ccc1OC)C2 (stereo not drawn),-0.553
14,CCOC(=O)C1CCCN(C(=O)Cc2ccc(Cl)cc2)C1 (stereo not drawn),0.247
15,O=C(Nc1nc(-c2ccc(F)c(F)c2)cs1)c1cc([N+](=O)[O-])ccc1N1CCOCC1,-0.258
16,COC(=O)c1cccc(NS(=O)(=O)c2ccc(NC(C)=O)cc2)c1C,-0.0283
17,Cc1ccc(CNc2ccc(N3CCOCC3)c(C(=O)O)c2)s1,0.589
18,Cc1cccc(N=Cc2cc3c(cc2[N+](=O)[O-])OCO3)c1,-0.0653
19,Cc1nn(Cc2ccccc2Cl)c(C)c1N,-0.104
20,COc1ccc(-n2c(N)c(C#N)c3ccc([N+](=O)[O-])cc3c2=O)cc1,0.119
21,COc1ccc(-c2nc(CCNS(=O)(=O)c3ccc4c(c3)OCCO4)cs2)cc1,-0.146
22,COC(=O)c1ccc(Oc2nc(C)cc(Oc3ccccc3)n2)cc1,-0.75

row,Structure (SMILES),z-score
1,CCOC(=O)C1CCN(CC(O)COc2ccc(C(C)=O)cc2)CC1 (stereo not drawn),-0.0456
2,CC(=O)N(Cc1c(C#N)c2ccccc2n1C)c1ccccc1,-0.168
3,O=C(CCCN1C(=O)c2ccccc2C1=O)NCCCN1CCOCC1,0.731
4,Cc1cccc2cc(CN(Cc3cccs3)C(=S)NCC3CCCO3)c(=O)[nH]c12 (stereo not drawn),-0.229
5,CCOc1ccc(/C=N/NC(=O)C(C)N(c2ccc(OC)cc2)S(C)(=O)=O)cc1 (stereo not drawn),-0.0653
6,Cc1ccc2nc(NC(=O)CN(C)S(=O)(=O)c3cccc4nsnc34)sc2c1,0.0764
7,CCCCCOC(=O)Cn1c(=O)c2c(nc(N3CCOCC3)n2C)n(C)c1=O,0.0775
8,O=C(Nc1ccccc1C(=O)NCCCn1ccnc1)c1ccc(Cl)cc1Cl,-0.608
9,Brc1ccc(-c2ccc(/C=N/Nc3nc4ccccc4[nH]3)o2)cc1,0.221
10,COc1ccc(N/C(C)=C/C(=S)Nc2ccccc2)cc1,0.204
11,Cc1cc(C)nc(NS(=O)(=O)c2ccc(NC(=O)c3cccc(N4C(=O)CCC4=O)c3)cc2)n1,-0.0687
12,C/C(=N/NS(=O)(=O)c1ccc(Br)cc1)c1ccc(NC(=O)c2ccc(C)o2)cc1,-0.763
13,Cc1nn(-c2ccccc2)c2sc(C(=O)NC3CC3)cc12,-1.46
14,CC(C)CNS(=O)(=O)c1ccc(CCC(=O)N2CCN(Cc3ccccc3)CC2)cc1,-0.316
15,CC1CN(C(=S)NC(=O)c2cccc([N+](=O)[O-])c2)CC(C)O1 (stereo not drawn),0.539
16,COC(=O)c1cccc(-n2[nH]nnc2=S)c1,0.908
17,Cc1ccc(NS(=O)(=O)c2ccc3c(c2)c(=O)n(C)c(=O)n3C)cc1F,-0.283
18,Cc1ccc2[nH]c3c(N4CCN(Cc5ccccc5)CC4)ncnc3c2c1,-0.392
19,CCN(c1ccccc1)S(=O)(=O)c1ccc(C(=O)Oc2ccc(C(C)=O)cc2)cc1,-0.819
20,C/C(=N\NC(=O)c1ccccc1-n1cccc1)C1CC1,-0.158
21,CC(C)(C)C(=O)Nc1ccc(C(=O)Nc2cccnc2)cc1,0.0659
22,Cc1cc(C)nc(NS(=O)(=O)c2ccc(NC(=S)NC(=O)CC(C)C)cc2)n1,-0.244

row,Structure (SMILES),z-score
1,CCOc1ccccc1C(=O)n1nc2nc(C)cc(C)c2c1N,-0.941
2,CCOC(=O)c1sc(NC(=S)n2cc(C)cn2)c(C(=O)OCC)c1C,0.122
3,Cc1ccc(S(=O)(=O)N(C)c2ccc(C(=O)NCC3CCCO3)cc2)cc1 (stereo not drawn),0.0311
4,CC#CC[N+](C)(C)CCCCCCCCCCCC,-0.51
5,Cc1ccccc1NS(=O)(=O)c1ccc(NC(=O)c2nc3ncccn3n2)cc1,0.0108
6,CNc1oc(-c2ccco2)nc1C#N,0.498
7,CC1(C)CN=C(N2CCN(c3ncnc4sc5c(c34)CCCC5)CC2)S1,active: 5.02
8,CCN(CC)S(=O)(=O)c1ccc(N2CCOCC2)c(NC(=O)c2cc(C)cc(C)c2)c1,-0.334
9,Cc1cccc(OCC(=O)NNC(=O)c2cc3ccccc3oc2=O)c1,0.755
10,Cc1ccc2c(c1)nnn2C1CCN(CC(=O)Nc2ccc3c(c2)OCCO3)CC1,-0.198
11,CC(C)C1Cc2c(C#N)c(N)sc(=S)c2CO1 (stereo not drawn),0.698
12,O=C(NCc1ccccc1)Nc1cccn(Cc2ccccc2)c1=O,-0.14
13,O=C1OC(c2cccs2)=N/C1=C\c1ccc(-c2ccccc2Cl)o1,0.0833
14,COc1ccc(N(C(=O)c2ccco2)C(C(=O)NC2CCCC2)c2ccc(N(C)C)cc2)cc1OC (stereo not drawn),-0.1
15,CCN(C(=O)COC(=O)/C=C/c1ccc(O)c(OC)c1)C1CCS(=O)(=O)C1 (stereo not drawn),-0.127
16,N#C/C(=C(/O)COC(=O)c1ccc(C#N)cc1)c1nc2ccccc2s1,-0.337
17,O=C(Cc1sc(-c2ccccc2Cl)nc1-c1ccccc1)Nc1ccccc1,-0.145
18,Fc1ccc(/C=N/NC2=Nc3cccc4cccc2c34)cc1,-0.367
19,Cc1nc(SCC(=O)Nc2ccnc3ccccc23)n[nH]1,-0.57
20,O=C(Nc1ccc(Cl)cc1C(=O)NCc1cccnc1)c1ccc(Cl)cc1Cl,-0.533
21,COc1ccc(-c2nnc(SCCC(=O)O)n2-c2ccccc2)cc1OC,-0.345
22,CCOc1ccc(OCC)c(S(=O)(=O)NCCCN2CCOCC2)c1,0.889

row,Structure (SMILES),z-score
1,COC(=O)C1=NN(c2ccccc2)C2(S1)SC(C(C)=O)=C(C)N2c1ccccc1 (stereo not drawn),-0.198
2,O=C(CSC1=NCCN1)NC1CCCCCC1,-0.616
3,CN1CCN(NC(=O)c2cccc(F)c2)CC1,-0.141
4,CCCCn1nc2cc(C(=O)NCCc3ccc(C)cc3)ccc2c1OCC,-0.356
5,O=C(Nc1ccc2c(c1)OCO2)C1(S(=O)(=O)c2ccc(Cl)cc2)CC1,-1.49
6,O=C(COc1ccc(S(=O)(=O)NC2CCCCC2)cc1Cl)NCc1cccnc1,-0.567
7,CC(C)COc1ccc(C(=O)NCc2ccco2)cc1,-0.0157
8,N=c1c2c3c(sc2ncn1Cc1ccco1)CCCCC3,1.18
9,COc1ccc(NC(=O)C2CC2)cc1NS(=O)(=O)c1ccc(F)cc1,0.144
10,COc1ccc(CCNC(=O)c2c(O)c3c([nH]c2=O)CCCC3)cc1OC,-0.216
11,CC(NC(=O)/C(=C/c1ccc(OC(F)F)cc1)c1ccccc1)c1ccccc1 (stereo not drawn),-0.337
12,COc1ccc2[nH]c(=O)c(CN(Cc3nnnn3Cc3ccco3)C3CCCCC3)cc2c1,-1.4
13,COc1ccc(-c2csc(NC(=O)c3cc(C)on3)c2C#N)cc1OC,-0.214
14,Cc1ccc2nc(SCC(=O)c3ccc(Cl)s3)[nH]c2c1,0.092
15,Cc1cc(C(=O)CSc2n[nH]c(-c3ccccc3F)n2)c(C)n1Cc1cccs1,-0.265
16,c1ccc2c(NC3=NCCCCS3)cccc2c1,0.0574
17,CC(C)(C)NS(=O)(=O)c1ccc(N2C(=O)c3ccccc3C2=O)cc1,-0.177
18,COc1ccc(C(=O)/C=C2/c3ccccc3CC(C)(C)N2C)cc1,-0.448
19,COC(=O)CSc1nnc(C2COc3ccccc3O2)n1-c1ccccc1 (stereo not drawn),-0.294
20,O=C(O)CC(C(=O)OCCOc1ccccc1)N1CCOCC1 (stereo not drawn),-0.546
21,COc1ccccc1/C=C(/C(=O)OCC(=O)Nc1ccccc1C)c1ccccc1,-0.0551
22,COC(=O)c1c(NC(=O)Nc2ccc(Cl)cc2)sc(C)c1C,-0.185

row,Structure (SMILES),z-score
1,CCCN(CCC)C(=O)c1c(C)[nH]c(C(=O)OCC)c1C,-0.223
2,Cc1ccc(-c2cc(N)n[nH]2)cc1,-0.105
3,Cc1ccc(C2C(C#N)=C(N)SC(N)=C2C#N)cc1,-0.773
4,Cc1ccc(C)c(NC(=O)CN(C)C(=O)CCN2C(=O)c3ccccc3C2=O)c1,-0.0115
5,O=C(CN1CC(c2ccccc2)CC1=O)OCc1cccc(Br)c1 (stereo not drawn),-0.12
6,CCCOc1ccc(N2C(=O)CC(N(O)c3ccccc3)C2=O)cc1 (stereo not drawn),-0.235
7,CCCOc1ccc(-c2nc(=S)[nH][nH]2)cc1,0.12
8,NC(=O)c1cccn1Cc1cccc(Cl)c1,0.00567
9,CCOc1cc(N2CCOCC2)c(OCC)cc1NC(=O)c1ccc(OCc2c(C)noc2C)c(OC)c1,-0.712
10,COc1cc(CC(=O)NCc2cccs2)cc(OC)c1OC,-0.175
11,Cc1cc(C)c2[nH]c(=O)c(CN(CC3CCCO3)C(=S)NCc3ccco3)cc2c1 (stereo not drawn),0.209
12,CCOC(=O)c1c(NC(=O)c2cccs2)sc(C)c1CC,-0.104
13,COc1ccc2c(c1)c1nc3ccccc3nc1n2CC(=O)OC(C)C,0.485
14,Cc1cc2oc(C(=O)Nc3c(C)n(C)n(-c4ccccc4)c3=O)c(C)c2cc1C,-0.974
15,O=C(C1=NN[C@@H]2C(=O)N(c3cccc(C(F)(F)F)c3)C(=O)[C@H]12)C(c1ccccc1)c1ccccc1,-0.164
16,O=C(COC(=O)C1CC(=O)N(Cc2ccco2)C1)c1ccc(OC(=O)c2ccco2)cc1 (stereo not drawn),0.0771
17,Cc1ccccc1N=C1NN=C(c2ccccc2F)CS1,1.19
18,COc1ccccc1NC(=O)NC(N)=O,0.482
19,CCCS(=O)(=O)c1c(S(=O)(=O)CCC)c2c3ccccc3ccn2c1C(=O)OC,-0.21
20,COc1cc(-c2nnc(SCC3(c4ccc(Br)cc4)OCCO3)o2)cc(OC)c1OC,-0.385
